# Assay results: ChEMBL document CHEMBL4888484, “Replenishing the malaria drug discovery pipeline: Screening and hit evaluation of the MMV Hit Generation Library 1 (HGL1) against asexual blood stage Plasmodium falciparum ,using a nano luciferase reporter read-out” (2022)
# The whole screen tested about 150,000 compounds, of which about 540 (0.36%) showed an effect of 50% or more. This is one part of the list.
# Test system: Plasmodium falciparum
# Test: Primary screen in NF54 nanoGlo assay, in single point, at 2uM, 72h; a lower Z score goes with more inhibition
# Format: functional, Erythrocyte
# Details: timepoint 72 hour
Structure (SMILES),% Inhibition,Z score
COc1ncccc1CNC(=O)[C@@H]1CCN(c2cc(C)cc(C)c2)C1=O,31%,-4.42
CC(C)(C)c1ncc(CNc2cnc3[nH]ncc3c2)cn1,4%,-0.39
CC(C)Cc1noc(CNC(=O)CCn2cnnc2)n1,-4%,0.68
COc1ccc(-c2c(C)nn3c2NC(=O)CCC3=O)cc1S(=O)(=O)Nc1ccc(C)cc1Cl,7%,-1.33
Cc1cc(=O)n(CC(=O)Nc2ccccc2C)c(Nc2cccc(F)c2)n1,-9%,1.33
Cc1ccccc1OCC(=O)N1C[C@@H]2C[C@H](NS(=O)(=O)c3ccccc3)[C@H]1C2,29%,-3.28
C=C(C)CN(CC)S(=O)(=O)N(C)C1CCCCC1,5%,-0.58
O=C(O)c1ccccc1CCN1CC[C@H](O)[C@@H](C2CCCC2)C1,-4%,0.43
Cc1nc(C)c2c(n1)O[C@@H](CN(C)Cc1ccc(C)o1)C2,-4%,0.66
c1cc(N[C@H]2CCOC2)cc(-c2nc(C3CC3)n[nH]2)c1,-8%,1.59
CC1(C)C[C@@H](C(=O)NC2CCCCC2)CCO1,-13%,1.65
COc1cccc2c1OCc1cn(nn1)[C@H]1CN(C(=O)c3ccc4ncsc4c3)C[C@H]1CC(=O)NCCN(C)C2=O,-5%,1.03
C[C@]1(O)CCN(C(=O)c2cccc(OC(F)F)c2)C[C@H]1O,-23%,4.27
COc1ccc(OC)c2sc(NC(=O)CCOc3ccccc3)nc12,-17%,3.26
Cc1[nH]c(=O)[nH]c(=O)c1S(=O)(=O)N1CCN(c2cccc(Cl)c2)CC1,-8%,0.97
CCN(CC)S(=O)(=O)N[C@@H](C)CCc1ccc(OC)cc1,9%,-1.16
CC(C)n1c(=O)c(NCc2ccc(N3CCOCC3)cc2)nc2ccncc21,-1%,0.11
CC(=O)N(CN1C(=O)C2CCCCC2C1=O)c1ccccc1 (centres undefined),-1%,0.1
CCc1noc(C)c1NC(=O)N1CCOC(C(F)(F)F)C1C (centres undefined),-4%,0.5
Cc1ccc(NC(=O)c2c([O-])n(-c3ccc(C)cc3)n[n+]2Cc2ccccc2)cc1,4%,-0.47
Cc1cc(=O)[nH]c(NCCNC(=O)c2cc(C#N)c[nH]2)n1,-3%,0.32

Structure (SMILES),% Inhibition,Z score
CCOC(=O)c1cccnc1NCc1ccc(N2CCNC(=O)C2)cc1,-5%,0.96
Cc1ccc(C(=O)N2CCc3[nH]nc(C(=O)N4CCN(c5ccccc5C)CC4)c3C2)cc1,-6%,0.8
Cc1nc(C2CC2)nc(N2CCN(C(=O)c3ccc(F)cc3)CC2)c1Cc1c(F)cccc1Cl,-9%,1.51
CC(C)Nc1ncc(-c2nc(C3CCCC3)nn2CCO)cn1,0%,-0.07
C[C@H]1CN(Cc2cc3ccccc3n2C)CCS(=O)(=O)C1,-6%,0.84
CCn1ncnc1CN(C)Cc1ccc2c(c1)CN(C)C2,17%,-2.22
Cc1ccc2[nH]nc(-c3nc(-c4cccnc4)no3)c2c1,-6%,1.17
COc1ccc(OCc2nn(-c3nc4ccccc4s3)c(N)c2-c2ccccc2)cc1,-10%,1.34
COCCCN(CCOC)C(=O)Cc1csc(C)n1,-5%,0.9
Cc1cccc(CC(=O)N2CCC3(CC2)Nc2cccnc2N=C3NC2CCCC2)c1,34%,-3.8
CC(C)N(C)C(=O)c1coc(COc2ccc3c(c2)OCO3)n1,-3%,0.47
CNS(=O)(=O)c1cc(C(=O)N2CCC(CNC(=O)c3cnn(C)c3)CC2)cc(C)c1C,6%,-0.99
Cc1cnn(C2CN(Cc3cccnc3)C2)c1,-8%,1.31
Cc1cnc(CCNC(=O)[C@@H]2CCC(=O)N2C)nc1,-1%,0.24
CN(Cc1cc2ccccc2s1)C(=O)c1cn(C[C@H]2CCCNC2)nn1,12%,-1.6
O=C(Nc1cccc2c1CCCC2)[C@@H]1CC=CCC1,-20%,1.77
C[C@@H]1[C@H](N(C)CCO)CCN1c1nccc2occc12,-12%,2.24
Cc1cnn(CCc2nc(CC(N)=O)nn2Cc2c(F)cccc2Cl)c1,-8%,0.88
CN1CCC(N(Cc2ccncc2)Cc2cc(F)cc(Cl)c2)CC1,2%,-0.39
O=C1NCC(C2CCOC2)C(=O)N1Cc1cccc(Cl)c1F (centres undefined),-3%,0.55
Cc1noc(C)c1S(=O)(=O)NCC(=O)N1CCCCCCNC(=O)C[C@H]1c1ccccc1,-12%,1.73
